Variants at the background level are over-represented here.
B1: TPR 5TU (parent)
chain: GGAUCUUCUCGAUCUAACAAAAAAGACAAAUCUGCCACAAAGCUUGAGAGCAUCUUCGGAUGCAGAGGCGGCAGCCUUCGGUGGCGCGAUAGCGCCAACGUUCUCAACUAUGACACGCAAAACGCGUGCUCCGUUGAAUGGAGUUUAUCAUG

Variants of: B1
Test: polymerase ribozyme fitness, log enrichment relative to wild type (log ratio); higher = more active; in vitro selection for triplet polymerase activity
Procedure, shortened: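 Mutant libraries of both subunits of a heterodimeric triplet polymerase ribozyme were PCR-built, transcribed, and selected once in triplicate, with frozen incubation at −7 °C and capture of gel-excised extended constructs on streptavidin beads before RT-PCR. Illumina sequencing of input and output libraries was filtered to genotypes with ≥10 input reads and ≥1 read per output. Fitness is the logarithm of genotype enrichment over wild-type enrichment, using inverse-variance-weighted replicate averages. The logarithm is base 2.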

Compared with GGAUCUUCUCGAUCUAACAAAAAAGACAAAUCUGCCACAAAGCUUGAGUGCAUCUUCGGAUGCAGAGGCGGCAGCCUUCGGUGGGGCGAUAGCGCCAACGUUCUCAACUAUGACACGCAAAACGCGUGCUCCGUUGAAUGGAGUUUAUCAUG, GGAUCUUCUCGAUCUAACAAAAAAGACAAAUCUGCCACAAAGCUUGAGUGCAUCUUCGGAUGCAGAGGCGGCAGCCUUCGGUGGCGCGCUAGCGCCAACGUACUCAACUAUGACACGCAAAACGCGUGCUCCGUUGAAUGAAGUUCAUCAUG is lower in “polymerase ribozyme fitness (log ratio)” value: -2.96 for the first, ≤ -4.2 for the second.

Going from GGAUCUUCUCGAUCUAACAAAAAAGACAAAUCUGCCACAAAGCUUGAGUGCCUCUUCGGAUGCAGAGGCGGCAGCCUUCGGUGGCGCGAUAGCGCCAACGUUCUCAACUAUGACACGCAAAACGCGUGCUCCGUUGAAUGGAGUUUAUCAUG to GGAUCUUCUCGAUCUAACAAAAAAGACAAAUCUGCCACAAAGCUUGAGUGCAUUUUCGGAUGCAGAGGCCGCAGCCUUCGGUGGCGCGAUAGCGCCAACGUUCUCAACUAUGACACGCAAAACGCGUGCUCCGUUGAAUGGAGUUUAUCAUG, the “polymerase ribozyme fitness (log ratio)” value falls from -0.692 to ≤ -4.2.

Compared with GGAUCUUCUCGAUCUAACAAAAAAGACAAAUCUGCCACAAAGCUUGAGGGCAUCUUCGGAUGCAGAGGCGGCAGCCUUCGGUGGCGCGAUAGCACCAACGUUCUCAACUAUGACACGCAAAACGCGCGCUCCGUUGAAUGGAGUUUAUCAUG, GGAUCUUCUCGAUCUAACAAAAAAGACAAAUCUGCCACAAAGCUUGAGGACAUCUUUGGAUGCAGAGGCGGCAGCCUUCGGUGGCGCUAUAGCGCCAACGUUCUCAACUAUGACACGCCAAACGCGUGCUCCGUUGAAUGGAGUUUAUCAUG is lower in “polymerase ribozyme fitness (log ratio)” value: -3.23 for the first, ≤ -4.2 for the second.

Going from GGAUCUUCUCGAUCUAACAAAAAAGACAAAUCUGCCACAAAGCUUGAGGGCAUCUUCGGAUGCAGAGGCGGCAGCCUUCGGUGGCGCGAUAGCGCCAACGUUCUCAACUAUGACACGCAAAACGCGUGCUCCCUUGAAUGGAGUUUAUCAUG to GGAUCUUCUCGAUCUAACAAAAAAGACAAAUCUGCCACAAAGCUUGAGUGCAUCUUCGGAUGCAGAGGCGGCAGCCUUCGGUGGGGCGAUAGCGCCAACGUUCUCAACUAUGACACGCAAAACGUGUGCUCCGUUGAAUGGAGGUUACCAUG, the “polymerase ribozyme fitness (log ratio)” value falls from -2.21 to ≤ -4.2.

GGAUCUUCUCGAUCUAACAAAAAAGACAAAUCUGCCACAAAGCUUGAGGACAUCUACGGAUGCAGAGGCGGAAGCCUUCGGUGGCGCGAUGGCGCCAACGUUCUCAACUAUGACACGCAAAACGCGUGCUCCGUUGAAUGGAGUUUAUCAUG and GGAUCUUCUCGAUCUAACAAAAAAGACAAAUCUGCCACAAAGCUUGAGUCCAUCUUCGGAUGCAGAGGCGGCAGCCUUCGGUGGCGCGAUAGCGCCAACGUUCUCAACUAUGACACGCAAAACGCGUGCUCCGUUGAAUGGAGUUUAGCAUG cannot be ordered by “polymerase ribozyme fitness (log ratio)” value: ≤ -4.2 for the first, ≤ -4.2 for the second.

GGAUCUUCUCGAUCUAACAAAAAAGACAAAUCUGCCACAAAGCUUGAGGACAUAUUCGGAUGCAGGGGCGGCAGCCUUCGGAGGCGCGAUAGCGCCAACGUUCUCAAUUAUGACACGCAAAACGAGUGCUCCGUUGAAUGGAGUUUAUCAUG and GGAUCUUCUCGAUCUAACAAAAAAGACAAAUCUGCCACAAAGCUUGAGUGCAUCUUCGGAUGCAGAGGCGGCAGCCUUCGGUGGCGAGAUAGCGCCAACGGUCUCAACUAUGACACUCAAAACGCGUGCCCCGUUGAAUGGAGUUUAUCAUG cannot be ordered by “polymerase ribozyme fitness (log ratio)” value: ≤ -4.2 for the first, ≤ -4.2 for the second.

First: GGAUCUUCUCGAUCUAACAAAAAAGACAAAUCUGCCACAAAGCUUGAGUGCAUCUUCAGAUGCAGAGGCGGCAGCCUUCGGUGGCGCGAUAGCGCCAACGUGCUCAACUAUGACACGCAAAUCGCGUGCUCCGUUGAAUGGAGUUUAUCAUG
Second: GGAUCUUCUCGAUCUAACAAAAAAGACAAAUCUGCCACAAAGCUUGAGGCCAUCUUCGGAUGCAGAGGCGGCAGCCUUCGGUGGCGCGAUAGCGUCAGCGUUCUCAACUAUGACACGCAAAACGCGUGCUCCGUUGAAUGGAGUGUAUCAUG
The “polymerase ribozyme fitness (log ratio)” value of the first is higher: -0.217 for the first, -2.77 for the second.

First: GGAUCUUCUCGAUCUAACAAAAAAGACAAAUCUGCCACAAAGCUUGAGGGCAUCUUCGGAUGCAGAGGCGGCAGCCUUCGGUGGCGCGAUAGCCCCAACGUUCUCAACUAUGACACGCAAAACGCGUGCUCCUUUGAAUGGAGUUUAUCAUU
Second: GGAUCUUCUCGAUCUAACAAAAAAGACAAAUCUGCCACAAAGCUUGAGGGCAUCUUCGGAUGCAGAGGCGGCAGCCUUCGGUUGCGCGAUAGCGCCAACGUUCUCAACUAUGACACGCAAAACGCGUGCUCCGUUGAAUGGAGUUUAUCAUG
The “polymerase ribozyme fitness (log ratio)” value of the first is lower: ≤ -4.2 for the first, -1.22 for the second.

GGAUCUUCUCGAUCUAACAAAAAAGACAAAUCUGCCACAAAGCUUGAGUGCAUCUUCGGAUGCAGAGGCGGCAGGCUUCGGUGGAGCGAUAGCGCCAACGUUCUCAACUAUGACACGCAAAACGCGUGGUCCGUUGAAUGGAGUUUAUCAUG and GGAUCUUCUCGAUCUAACAAAAAAGACAAAUCUGCCACAAAGCUUGAGUGCAUCUUCGGAUGCAGAGGCGGCAGCCUUCGGUGGCGCGAUAGCGCCAAAGUUCUCAACUAUGACACGCAAAACGCGUGCUCCGUUGAAUGGAGUUUUUCAUG cannot be ordered by “polymerase ribozyme fitness (log ratio)” value: ≤ -4.2 for the first, ≤ -4.2 for the second.

GGAUCUUCUCGAUCUAACAAAAAAGACAAAUCUGCCACAAAGCUUGAGGGCAUCUACGGAUGCAGAGGCGGCAGCCUUCGAUGGCGCGAUAUCGCCAACGUUCUCAACUAUGACACGCAAAGCGCGUGCUCCGUUGGAUGGAGUUUAGCAUG and GGAUCUUCUCGAUCUAACAAAAAAGACAAAUCUGCCACAAAGCUUGAGGCCAUCAUCGGAUGCAGUGGCGGCAGCCUUCGGUAACGCGAUAGCGCCAACGUUCACAACUAUGACACGCAAAACGCGUGCUCCAUUGAAUGGAGUUUAUCGUG cannot be ordered by “polymerase ribozyme fitness (log ratio)” value: ≤ -4.2 for the first, ≤ -4.2 for the second.

Going from GGAUCUUCUCGAUCUAACAAAAAAGACAAAUCUGCCACAAAGCUUGAGUGCAUCUUCGAAUGCAGAGGCGGCAGCCUUCGGUGGCGCGAUAGCGCCAACGUUCUCAACUAUGACUCGCCAAACGCGUGCUCCGUUGAAUGGAGUUUAUCAUG to GGAUCUUCUCGAUCUAACAAAAAAGACAAAUCUGCCACAAAGCUUGAGUGCAUUUUCGGAUGCAGAGGCGGCAGCCUUCGGUGGCGCGAUAGCGCCAACGUUCUCAACUAAGGCACGCAAUACGCGUGCUCCAUUGAAUGGAGUUUAUCAUG, the “polymerase ribozyme fitness (log ratio)” value falls from -3.36 to ≤ -4.2.

GGAUCUUCUCGAUCUAACAAAAAAGACAAAUCUGCCACAAAGCUUGAGUGCAUCUUCGGAUGCAGAGGCGGCAGCCUUCGGUGGUGCGAUAGGGCCAACGUUCUCAACUAUGACACGCAAAACGCGUGCUCUGUUGAAUGGAGUUUAUCAUG and GGAUCUUCUCGAUCUAACAAAAAAGACAAAUCUGCCACAAAGCUUGAGGGCAUCUUCGGAUGCAGAGGCGGCAGCCUUCGGUGGCGCGAUAGCCCCGACGUUCUCAACUAUGACACGCAAAACGCGUGCUCCGUUGGAUGGAGUUUAUCAUG cannot be ordered by “polymerase ribozyme fitness (log ratio)” value: ≤ -4.2 for the first, ≤ -4.2 for the second.

First: GGAUCUUCUCGAUCUAACAAAAAAGACAAAUCUGCCACAAAGCUUGAGUGCAUCUUCGGAUGCAGAGGCGGCAGCCUUCGGUGGCGCGAUAGCGCCAACGUUCUCAACUAUGACAGGCAAAACGCGUGCUCCGUUGAAUGGAGUUUAUUAUG
Second: GGAUCUUCUCGAUCUAACAAAAAAGACAAAUCUGCCACAAAGCUUGAGGACAUCUUCGGAUGCAGAGGCGGCAGCCUUCGGUGGCGCGAUAGCGUCAACGUUCUCAACUAUGACACGCAAAACGCGUGCUCCGUUGAAUGGAGUCUAUCAUG
The “polymerase ribozyme fitness (log ratio)” value of the first is lower: -4.18 for the first, -2.54 for the second.

First: GGAUCUUCUCGAUCUAACAAAAAAGACAAAUCUGCCACAAAGCUUGAGGGCAUCUUCGGAUGCAGAGGCGGCAUCCUUCGGUGGCGCAAUAGCGCCAACGUUCUCAACUAUGACACGCAAAACGCGUGCUCCGUUGAAUGGAGAUUAUCAUG
Second: GGAUCUUCUCGAUCUAACAAAAAAGACAAAUCUGCCACAAAGCUUGAGGGCAUCUUCGGAUGCAGAGGCGGCAGCCUUCGGUGGCGCGAUAGCGCCAACGUUCUCAACUAUGACACGCAAAACGCGUGCUCCGUUGAAUCGAGUUUAUCAUG
The “polymerase ribozyme fitness (log ratio)” value of the first is lower: ≤ -4.2 for the first, -3.88 for the second.

GGAUCUUCUCGAUCUAACAAAAAAGACAAAUCUGCCACAAAGCUUGAGGACAACUUCAGAUGCAGAGGCGGCAGCCUUCGGUCGCGCGAUAGCGCCAACGUUCUCAACUAUGACACGCAAAACGCGUGCUCCGUUGAAUGGAGGUUAUCAUG and GGAUCUUCUCGAUCUAACAAAAAAGACAAAUCUGCCACAAAGCUUGAGUGCAUCUUCGGAUGCAGAGGCGGCUGCCUUCGGUGGCGCGAUAGCGCCAACGUUCUCAACUAUGACACGCAAAACGCGUGCUCCGUUGAAUGGAGUUUAUCAUG cannot be ordered by “polymerase ribozyme fitness (log ratio)” value: ≤ -4.2 for the first, ≤ -4.2 for the second.

Compared with GGAUCUUCUCGAUCUAACAAAAAAGACAAAUCUGCCACAAAGCUUGAGGGCAUCAUCGGAUGCAGAGGCGGCAGCCUUCGGUGGCGCGAUAGCGCCAACGUUCUCAACUAUGACACGCAAAACGCGUGCUCCGUUGAAUGGAGUUUAUCAUG, GGAUCUUCUCGAUCUAACAAAAAAGACAAAUCUGCCACAAAGCUUGAGUGCAUCUUCGGAUGCAGAGGCGGUAGCAUUCGGUGGCGCGUUAGGGGCAUCGUUCUCAACUAUGACACGCAAAACGCGUGCUCCGUUGAAUGGAGUUUAUCAUG is lower in “polymerase ribozyme fitness (log ratio)” value: -0.644 for the first, ≤ -4.2 for the second.

GGAUCUUCUCGAUCUAACAAAAAAGACAAAUCUGCCACAAAGCUUGAGUGCAUCUUCGGAUGCAGAGGCGGCAGCCUUCGGUGGCGCGAUAGCGCCAACGUUCUCAACUUUGACACUCAAAACGCGUGCUCCGUUGAAUGGAGUUUAUCAUG and GGAUCUUCUCGAUCUAACAAAAAAGACAAAUCUGCCACAAAGCUUGAGUGCAUCUUAGGAUGCAGAGGCGGCAGCCUUCGGUUGCGCGAUAGCGUCAACGUUCUCAACUAUGACACGCAAAACGCGUGCUCCGUUGAAUGGAGUUUAUUAUG cannot be ordered by “polymerase ribozyme fitness (log ratio)” value: ≤ -4.2 for the first, ≤ -4.2 for the second.

GGAUCUUCUCGAUCUAACAAAAAAGACAAAUCUGCCACAAAGCUUGAGGGCAUCAUCGGAUGCAGAGGCGGCAGCCUUCGGUUGCGGGAUAGCGCCAACGUUUUCAACUAUGACACGCAAAACGCGUGCUCCGUUGAAUGGAGUUUAUCAUG and GGAUCUUCUCGAUCUAACAAAAAAGACAAAUCUGCCACAAAGCUUGAGGGCAUCUUCGGAUGCAGAGUCGGCUGCCUUCGACAGCGCGAUAGCGCCAACGUUCUCAACUAUGACACGCAAAACGCGUGCUCCGUUGAAUGGAGUUUAGCAUG cannot be ordered by “polymerase ribozyme fitness (log ratio)” value: ≤ -4.2 for the first, ≤ -4.2 for the second.

Compared with GGAUCUUCUCGAUCUAACAAAAAAGACAAAUCUGCCACAAAGCUUGAGUGCAUCUUCGGAUGCAGAGGCGGCAGACUUCGGUGGCGCGAUAACGCCAACGUUCUCAACUAUGACACGCUAAACGCGUGCACCGUUGAAUGGAGUUUUUCAUA, GGAUCUUCUCGAUCUAACAAAAAAGACAAAUCUGCCACAAAGCUUGAGUGCAUUUUCGGAUGCAGAGGCGGCAGCCUUCGGUGGCGCGAUAGCGCCAACGUUCUCAACUAUGACACGCAAAACGCGUGCUCCGUUGAAUGGAGUUUAUCAUG is higher in “polymerase ribozyme fitness (log ratio)” value: ≤ -4.2 for the first, -1.34 for the second.

— the RNAGym collection of RNA variant scans (doi:10.1073/pnas.2313332121)
